Values joined by “and” are separate entries in the source; they are usually repeats but may differ in a detail not shown here. Equal values may be shown once. The whole screen tested about 310,000 compounds, of which about 11,000 (3.5%) were called active. The inconclusive results got no clear call from the source; some entries with a clear call stand among them for comparison. Calls come from the whole dose curve; as a rule, active = well fitted inhibition curve with a large enough effect; inconclusive = small, poorly fitted or top-dose-only effect, or effect the other way; inactive = flat fitted curve, though single readings scatter. A potency beside an inconclusive call is a rough fit, not a confirmed value.
Assay: VP16 counterscreen qHTS for inhibitors of ROR gamma transcriptional activity;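 note: Gal4-VP16 expression switched on by copper sulfate through the metallothionein promoter; nearly all actives have a fitted effect of over 50% in size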
Details: Drosophila S2 Gal4-VP16 UAS-luciferase, luminescence, 20 h; activity, negative = inhibition: at 53.6 µM (top of the series)
% is set by controls: 0 for no effect and ±100 for the full control effect; potency is the fitted concentration of half-maximal effect; tags give direction and shape of the fitted curve.

Row | Compound | activity, negative = inhibition | Potency
1 | CC(C(=O)N1CCCc2ccccc21)N1C(=O)c2ccccc2C1=O (stereo not given) | inactive: -2.52% | –
2 | O=C(CNCc1cccs1)Nc1cc(S(=O)(=O)N2CCCC2)ccc1Cl | – | inconclusive: 3.55 µM [inhibitor, partial curve, poor fit]
3 | O=C(N/N=C/c1cccs1)c1ccc2ccccc2c1 | – | active: 5.62 µM
4 | Cc1ccc2c(C)cc(=S)[nH]c2c1 | – | inconclusive: 35.5 µM [inhibitor, single point]
5 | O=C(NC(=S)NCc1ccccc1)c1ccccc1[N+](=O)[O-] | – | active: 15.8 µM
6 | CCOc1ccc(Oc2nc(Nc3ccc(C)cc3)nc(N(C)C)n2)nn1 | – | inconclusive: 35.5 µM [inhibitor, single point]
7 | Cc1ccn2cc(-c3cccc([N+](=O)[O-])c3)nc2c1 | – | inconclusive: 35.5 µM [inhibitor, single point]
8 | Cc1cc(C)c(C)c(S(=O)(=O)N2CCC(C(=O)Nc3ccncc3)CC2)c1C | – | inconclusive: 31.6 µM [inhibitor, single point]
9 | O=C(CCOc1ccccc1)Nc1ccc(Br)cc1 | inactive: 0.954% | –
10 | O=C(NCC1CCCO1)c1cc(-c2ccccc2)nc2ccccc12 (stereo not given) | – | inconclusive: 1.78 µM [inhibitor, partial curve, poor fit]
11 | CCOc1ccc(N(CC(=O)Nc2ccc(OC)cc2OC)S(=O)(=O)c2c(C)[nH]c(=O)[nH]c2=O)cc1 | inactive: -7.49% | –
12 | O=C(CC(Nc1ccc(F)cc1)c1ccccc1)c1ccccc1 (stereo not given) | – | inconclusive: 17.8 µM [inhibitor, single point]
13 | CCC(C)NS(=O)(=O)c1ccc(NC(=O)Cc2ccc(OC)cc2)cc1 (stereo not given) | inactive: -1.37% | –
14 | CCCc1[nH]nc2c1C(C1CC=CCC1)C(C#N)=C(N)O2 (stereo not given) | – | inconclusive: 15.8 µM [inhibitor, partial curve, poor fit]
15 | COc1cc(NS(=O)(=O)c2ccc(C)cc2C)cc(OC)c1OC | – | inconclusive: 22.4 µM [inhibitor, partial curve, poor fit]
16 | CCCc1cc(C(=O)Nc2ccc(C(C)=O)cc2)no1 | – | inconclusive: 35.5 µM [inhibitor, single point]
17 | Cc1nc(C)c(C(=O)NNC(=O)Nc2ccc(Cl)cc2)s1 | inactive: 0.314% | –
18 | S=C(NCCc1ccccc1)NCC1CCCO1 (stereo not given) | – | inconclusive: 28.2 µM [inhibitor, single point]
19 | COc1ccc(NC(=S)Nc2ccccc2)cc1 | – | inconclusive: 22.4 µM [inhibitor, single point] and inconclusive: 35.5 µM [inhibitor, single point]
20 | O=C(CSCc1c(Cl)cccc1Cl)Nc1ccc2c(c1)OCCO2 | – | inconclusive: 3.98 µM [activator, single point]
21 | CC1(C)Cc2nc3oc4c(NCc5ccccc5)ncnc4c3cc2CO1 | inactive: -2.99% | –
22 | CC(=O)N1c2ccc(S(=O)(=O)N3CCC(C(=O)Nc4cccc(C)c4C)CC3)cc2CC1C (stereo not given) | inactive: -7.97% | –
23 | CCOc1cc(/C=C2\CN(CC)C/C(=C\c3ccc(O)c(OCC)c3)C2=O)ccc1O | – | inconclusive: 25.1 µM [inhibitor, single point]

Row | Compound | activity, negative = inhibition | Potency
24 | COc1ccc(C(=O)NC(=S)Nc2ccccc2N2CCOCC2)cc1[N+](=O)[O-] | – | active: 10 µM
25 | Cc1cc(C(=O)COC(=O)c2ccc[nH]c2=O)c(C)n1-c1ccccc1 | – | active: 0.447 µM
26 | CCCCOc1ccc(S(=O)(=O)NNC(=O)C2Cc3c(ccc4ccccc34)O2)cc1 (stereo not given) | – | inconclusive: 35.5 µM [inhibitor, single point]
27 | COc1ccc(-c2cc(C(=O)NCC3CCCO3)c3cc(C(C)C)ccc3n2)cc1 (stereo not given) | – | inconclusive: 35.5 µM [inhibitor, single point]
28 | O=C(N/N=C/c1ccc(OCc2ccccc2)cc1)c1ccc(O)cc1 | – | active: 11.2 µM
29 | CCOc1ccc(-c2nc3ccccc3c(=O)o2)cc1 | – | inconclusive: 7.94 µM [inhibitor, partial curve]
30 | Clc1cc2nc(-c3cccnc3Cl)[nH]c2cc1Cl | – | inconclusive: 2.82 µM [activator, single point]
31 | CC(=C/c1ccccc1)/C=N/n1c(C)n[nH]c1=S | – | active: 6.31 µM
32 | CC(=O)Oc1c(-c2ccco2)oc2ccccc2c1=O | – | inconclusive: 35.5 µM [inhibitor, single point]
33 | CC(C)C1OC(c2cccc(NC(=O)c3cccs3)c2)OCC1(C)C (stereo not given) | inactive: 0.726% | –
34 | CCN(CC)S(=O)(=O)c1ccc2[nH]c(=O)cc(C(=O)Nc3ccc(C)c(S(=O)(=O)N(CC)CC)c3)c2c1 | – | inconclusive: 3.98 µM [activator, single point]
35 | Cc1ccc(S(=O)(=O)/N=C2\C=C(Nc3cccc(C(=O)O)c3)C(=O)c3ccccc32)cc1 | – | inconclusive: 20 µM [inhibitor, single point]
36 | Oc1ccc(Br)cc1/C=N/n1c(C2CCCCC2)n[nH]c1=S | – | inconclusive: 10 µM [inhibitor, partial curve]
37 | COc1ccccc1CNC(=O)c1ccc2c(c1)OCO2 | – | inconclusive: 25.1 µM [activator, single point]
38 | CS(=O)(=O)c1sc(C#N)c2c1C(=O)CC(c1ccccc1)C2 (stereo not given) | – | active: 4.47 µM
39 | Cc1ccc(C(=O)Nc2nc3ccccc3c(=O)s2)cc1 | – | inconclusive: 25.1 µM [inhibitor, single point]
40 | O=[N+]([O-])c1ccc(N2CCN(C(=S)NCc3ccc(Cl)cc3)CC2)cc1 | – | inconclusive: 2.24 µM [inhibitor, full curve]
41 | COc1cccc(C2CCCN2Cc2nc(-c3cnccn3)no2)c1 (stereo not given) | inactive: -10.9% | –
42 | CCCOc1cccc(OCC(=O)Nc2nc3ccccc3[nH]2)c1 | – | inconclusive: 35.5 µM [inhibitor, single point]
43 | CCOC(=O)c1c(NC(=S)NCCc2ccccc2)sc2c1CC(C(C)C)OC2 (stereo not given) | – | active: 1.26 µM
44 | Cc1nn(Cc2ccc(Cl)cc2)c(C)c1NC(=O)c1cc(C(C)C)on1 | – | inconclusive: 20 µM [inhibitor, single point]
45 | Cc1[nH]n2c(=O)cc(C(C)C)nc2c1-c1ccccc1 | – | inconclusive: 35.5 µM [inhibitor, single point]
